# The list shows a part of the results.
# Tests used:
# Assay in all cases: glycan array binding signal (z-score within array); higher = stronger binding
# Details in all cases: glycan notation: IUPAC condensed, linker removed
# [1] = target: Neu5Ac(a2-3)Gal(b1-4)GlcNAc(b1-6)GalNAc
# How it was run: (§1)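 Columns mapping to the same glycan were averaged after glycan names were converted to IUPAC-condensed notation. The data come from 3228 arrays in the Consortium for Functional Glycomics database, limited to those with an available protein sequence. Binding is reported as a within-array Z-score averaged across arrays of one protein sequence and across linkers.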
# [2] = target: Neu5Ac(a2-3)Gal(b1-4)GlcNAc(b1-6)[Gal(b1-3)]GalNAc
# How it was run: as §1
# [3] = target: Neu5Ac(a2-3)Gal(b1-4)GlcNAc(b1-6)[Neu5Ac(a2-3)Gal(b1-3)]GalNAc
# How it was run: as §1
# [4] = target: Neu5Ac(a2-3)Gal(b1-4)GlcNAc6S
# How it was run: as §1
# [5] = target: Neu5Ac(a2-3)Gal(b1-4)[Fuc(a1-3)]GlcNAc
# How it was run: as §1
# [6] = target: Neu5Ac(a2-3)Gal(b1-4)[Fuc(a1-3)]GlcNAc(b1-2)Man
# How it was run: as §1
# [7] = target: Neu5Ac(a2-3)Gal(b1-4)[Fuc(a1-3)]GlcNAc(b1-3)Gal
# How it was run: as §1
# [8] = target: Neu5Ac(a2-3)Gal(b1-4)[Fuc(a1-3)]GlcNAc(b1-3)Gal(b1-4)GlcNAc
# How it was run: as §1
# [9] = target: Neu5Ac(a2-3)Gal(b1-4)[Fuc(a1-3)]GlcNAc(b1-3)Gal(b1-4)[Fuc(a1-3)]GlcNAc(b1-3)Gal(b1-4)[Fuc(a1-3)]GlcNAc
# How it was run: as §1
# [10] = target: Neu5Ac(a2-3)Gal(b1-4)[Fuc(a1-3)]GlcNAc(b1-3)GalNAc
# How it was run: as §1
# [11] = target: Neu5Ac(a2-3)Gal(b1-4)[Fuc(a1-3)]GlcNAc(b1-6)[Gal(b1-3)]GalNAc
# How it was run: as §1
# [12] = target: Neu5Ac(a2-3)Gal(b1-4)[Fuc(a1-3)]GlcNAc(b1-6)[Neu5Ac(a2-3)Gal(b1-3)]GalNAc
# How it was run: as §1
# [13] = target: Neu5Ac(a2-3)Gal(b1-4)[Fuc(a1-3)]GlcNAc6S
# How it was run: as §1
# [14] = target: Neu5Ac(a2-3)Gal6S(b1-4)GlcNAc
# How it was run: as §1
# [15] = target: Neu5Ac(a2-3)Gal6S(b1-4)[Fuc(a1-3)]GlcNAc
# How it was run: as §1
# [16] = target: Neu5Ac(a2-3)GalNAc
# How it was run: as §1
# [17] = target: Neu5Ac(a2-3)GalNAc(b1-4)GlcNAc
# How it was run: as §1
# [18] = target: Neu5Ac(a2-3)[GalNAc(b1-4)]Gal(b1-4)Glc
# How it was run: as §1
# [19] = target: Neu5Ac(a2-3)[GalNAc(b1-4)]Gal(b1-4)GlcNAc
# How it was run: as §1
# [20] = target: Neu5Ac(a2-3)[GalNAc(b1-4)]Gal(b1-4)GlcNAc(b1-3)GalNAc
# How it was run: as §1
# [21] = target: Neu5Ac(a2-3)[Neu5Ac(a2-6)]GalNAc
# How it was run: as §1
# [22] = target: Neu5Ac(a2-6)Gal
# How it was run: as §1
# [23] = target: Neu5Ac(a2-6)Gal(b1-3)GlcNAc(b1-3)[Gal(b1-4)GlcNAc(b1-6)]Gal(b1-4)Glc
# How it was run: as §1
# [24] = target: Neu5Ac(a2-6)Gal(b1-4)Glc
# How it was run: as §1
# [25] = target: Neu5Ac(a2-6)Gal(b1-4)GlcNAc
# How it was run: as §1
# [26] = target: Neu5Ac(a2-6)Gal(b1-4)GlcNAc(b1-2)Man
# How it was run: as §1
# [27] = target: Neu5Ac(a2-6)Gal(b1-4)GlcNAc(b1-2)Man(a1-3)Man(b1-4)GlcNAc(b1-4)GlcNAc
# How it was run: as §1
# [28] = target: Neu5Ac(a2-6)Gal(b1-4)GlcNAc(b1-2)Man(a1-3)[Gal(b1-4)GlcNAc(b1-2)Man(a1-6)]Man(b1-4)GlcNAc(b1-4)GlcNAc
# How it was run: as §1
# [29] = target: Neu5Ac(a2-6)Gal(b1-4)GlcNAc(b1-2)Man(a1-3)[GlcNAc(b1-2)Man(a1-6)]Man(b1-4)GlcNAc(b1-4)GlcNAc
# How it was run: as §1
# [30] = target: Neu5Ac(a2-6)Gal(b1-4)GlcNAc(b1-2)Man(a1-3)[GlcNAc(b1-4)][Neu5Ac(a2-6)Gal(b1-4)GlcNAc(b1-2)Man(a1-6)]Man(b1-4)GlcNAc(b1-4)GlcNAc
# How it was run: as §1
# [31] = target: Neu5Ac(a2-6)Gal(b1-4)GlcNAc(b1-2)Man(a1-3)[Man(a1-6)]Man(b1-4)GlcNAc(b1-4)GlcNAc
# How it was run: as §1
# [32] = target: Neu5Ac(a2-6)Gal(b1-4)GlcNAc(b1-2)Man(a1-3)[Neu5Ac(a2-3)Gal(b1-4)GlcNAc(b1-2)Man(a1-6)]Man(b1-4)GlcNAc(b1-4)GlcNAc
# How it was run: as §1
# [33] = target: Neu5Ac(a2-6)Gal(b1-4)GlcNAc(b1-2)Man(a1-3)[Neu5Ac(a2-6)Gal(b1-4)GlcNAc(b1-2)Man(a1-6)]Man(b1-4)GlcNAc(b1-4)GlcNAc
# How it was run: as §1
# [34] = target: Neu5Ac(a2-6)Gal(b1-4)GlcNAc(b1-2)Man(a1-3)[Neu5Ac(a2-6)Gal(b1-4)GlcNAc(b1-2)Man(a1-6)]Man(b1-4)GlcNAc(b1-4)[Fuc(a1-6)]GlcNAc
# How it was run: as §1
# [35] = target: Neu5Ac(a2-6)Gal(b1-4)GlcNAc(b1-2)Man(a1-6)Man(b1-4)GlcNAc(b1-4)GlcNAc
# How it was run: as §1
# [36] = target: Neu5Ac(a2-6)Gal(b1-4)GlcNAc(b1-2)Man(a1-6)[Gal(b1-4)GlcNAc(b1-2)Man(a1-3)]Man(b1-4)GlcNAc(b1-4)GlcNAc
# How it was run: as §1
# [37] = target: Neu5Ac(a2-6)Gal(b1-4)GlcNAc(b1-2)Man(a1-6)[GlcNAc(b1-2)Man(a1-3)]Man(b1-4)GlcNAc(b1-4)GlcNAc
# How it was run: as §1
# [38] = target: Neu5Ac(a2-6)Gal(b1-4)GlcNAc(b1-2)Man(a1-6)[Man(a1-3)]Man(b1-4)GlcNAc(b1-4)GlcNAc
# How it was run: as §1
# [39] = target: Neu5Ac(a2-6)Gal(b1-4)GlcNAc(b1-2)[Neu5Ac(a2-6)Gal(b1-4)GlcNAc(b1-4)]Man(a1-3)[GlcNAc(b1-4)][Neu5Ac(a2-6)Gal(b1-4)GlcNAc(b1-2)[Neu5Ac(a2-6)Gal(b1-4)GlcNAc(b1-6)]Man(a1-6)]Man(b1-4)GlcNAc(b1-4)GlcNAc
# How it was run: as §1
# [40] = target: Neu5Ac(a2-6)Gal(b1-4)GlcNAc(b1-2)[Neu5Ac(a2-6)Gal(b1-4)GlcNAc(b1-4)]Man(a1-3)[GlcNAc(b1-4)][Neu5Ac(a2-6)Gal(b1-4)GlcNAc(b1-4)Man(a1-6)]Man(b1-4)GlcNAc(b1-4)GlcNAc
# How it was run: as §1
# [41] = target: Neu5Ac(a2-6)Gal(b1-4)GlcNAc(b1-2)[Neu5Ac(a2-6)Gal(b1-4)GlcNAc(b1-6)]Man(a1-6)[Neu5Ac(a2-6)Gal(b1-4)GlcNAc(b1-2)Man(a1-3)][GlcNAc(b1-4)]Man(b1-4)GlcNAc(b1-4)GlcNAc
# How it was run: as §1
# [42] = target: Neu5Ac(a2-6)Gal(b1-4)GlcNAc(b1-3)Gal(b1-3)GlcNAc
# How it was run: as §1
# [43] = target: Neu5Ac(a2-6)Gal(b1-4)GlcNAc(b1-3)Gal(b1-4)GlcNAc
# How it was run: as §1
# [44] = target: Neu5Ac(a2-6)Gal(b1-4)GlcNAc(b1-3)Gal(b1-4)GlcNAc(b1-2)Man(a1-3)[Neu5Ac(a2-6)Gal(b1-4)GlcNAc(b1-3)Gal(b1-4)GlcNAc(b1-2)Man(a1-6)]GalNAc
# How it was run: as §1
# [45] = target: Neu5Ac(a2-6)Gal(b1-4)GlcNAc(b1-3)Gal(b1-4)GlcNAc(b1-3)Gal(b1-4)GlcNAc
# How it was run: as §1
# [46] = target: Neu5Ac(a2-6)Gal(b1-4)GlcNAc(b1-3)Gal(b1-4)GlcNAc(b1-3)Gal(b1-4)GlcNAc(b1-2)Man(a1-3)[Neu5Ac(a2-6)Gal(b1-4)GlcNAc(b1-3)Gal(b1-4)GlcNAc(b1-3)Gal(b1-4)GlcNAc(b1-2)Man(a1-6)]GalNAc
# How it was run: as §1
binder,measurement,setting,value
PX15618A-bth-503-24-503 (Bacteroides thetaiotaomicron) (protein) NKSEDKLSGDDFWAQGNETNAEAFLLSIYNSFRNATMSQRPFLTYSGDMRCAPITAYSTGDKYVAYLANNDMGELRNTYPDDARGGLIMQWDVFYTAIQDANILLAEIDKVPGMDELKRSRFKAEAIFMRSLSYFFIVRAFGDVPYYTNAYNEAPLPRTNMVIVLQNCLADLQPLLDDDPGAEVLPWSYSSYSSKGIRASRGSVIALMMHINLWLVQFDAQNKEQYYRNVVSLGEELERNNGAYSLLDINRSSVIFAGGSDEGLFEIAQNINFNEIFMMNAKFSDNVSYSCLNKSMPLFCYSGDYLMTLFPMYEDDARKELWFDEKIYSTSVSSSAPKEIKKFWNIDTYGNGTITSNSGNQIVFRYAGALLLYAEALAALGTNDTKACELLNRVRNRAHASEINTSGSELMDAIFWERCRELIGEGHYYYDLVRTGKVYNRNYCMNPMTRTNFNVGAWTWPIHRNALKNNTQIGLNLFWE,glycan array binding signal (z-score),[1],-0.222
same,glycan array binding signal (z-score),[2],-0.251
same,glycan array binding signal (z-score),[3],-0.194
same,glycan array binding signal (z-score),[4],0.22
same,glycan array binding signal (z-score),[5],-0.216
same,glycan array binding signal (z-score),[6],-0.33
same,glycan array binding signal (z-score),[7],0.244
same,glycan array binding signal (z-score),[8],0.344
same,glycan array binding signal (z-score),[9],-0.317
same,glycan array binding signal (z-score),[10],-0.342
same,glycan array binding signal (z-score),[11],-0.258
same,glycan array binding signal (z-score),[12],0.684
same,glycan array binding signal (z-score),[13],-0.429
same,glycan array binding signal (z-score),[14],0.119
same,glycan array binding signal (z-score),[15],-0.433
same,glycan array binding signal (z-score),[16],-0.79
same,glycan array binding signal (z-score),[17],-0.191
same,glycan array binding signal (z-score),[18],-0.82
same,glycan array binding signal (z-score),[19],-0.3
same,glycan array binding signal (z-score),[20],0.035
same,glycan array binding signal (z-score),[21],0.168
same,glycan array binding signal (z-score),[22],0.446
same,glycan array binding signal (z-score),[23],0.092
same,glycan array binding signal (z-score),[24],-0.213
same,glycan array binding signal (z-score),[25],0.767
same,glycan array binding signal (z-score),[26],-0.432
same,glycan array binding signal (z-score),[27],0.401
same,glycan array binding signal (z-score),[28],-0.781
same,glycan array binding signal (z-score),[29],-0.438
same,glycan array binding signal (z-score),[30],-0.755
same,glycan array binding signal (z-score),[31],-0.239
same,glycan array binding signal (z-score),[32],0.015
same,glycan array binding signal (z-score),[33],-0.217
same,glycan array binding signal (z-score),[34],0.509
same,glycan array binding signal (z-score),[35],0.441
same,glycan array binding signal (z-score),[36],-0.623
same,glycan array binding signal (z-score),[37],-0.445
same,glycan array binding signal (z-score),[38],-0.52
same,glycan array binding signal (z-score),[39],0.469
same,glycan array binding signal (z-score),[40],-0.142
same,glycan array binding signal (z-score),[41],0.131
same,glycan array binding signal (z-score),[42],0.473
same,glycan array binding signal (z-score),[43],0.689
same,glycan array binding signal (z-score),[44],-0.462
same,glycan array binding signal (z-score),[45],-0.165
same,glycan array binding signal (z-score),[46],-0.063
